Sequences with one replicate were seen in a single cluster, so their values are uncertain.
Test system: ATP
Assay: switch fluorescence ratio, 500 uM ATP over buffer (Cy3 cluster intensity, sum of 5 cycles each) (fold (ratio)); higher = stronger signal-on switching upon ATP binding; sequences stand for … in TCGTCGGCAGCGTCAGATGTGTATAAGAGACAGTTTTTTTTTTTTTTTTTTTTTTTTT…TC
Details: aptamer strand: ATP DNA aptamer (quencher-CACCTGGGGGAGTATTGCGGAGGAAGG + anchor), 100 nM annealed; ATP concentration: 500 uM; one replicate
In short: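 Cy3-labelled switching-strand clusters on a modified Illumina MiSeq flow-cell were annealed to 100 nM quencher-labelled ATP aptamer and imaged first in selection buffer, then after 15 min with 500 uM ATP at 22 °C. NaOH stripping and re-annealing separated each of five buffer/ATP cycles, and clusters outside 100-1000 RFU were excluded. The fluorescence ratio sums target-cycle Cy3 intensity over buffer-cycle Cy3 intensity per cluster and averages it per switch-domain sequence.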
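Also: ATP exposure 15 min at 22 °C before imaging.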

Sequence	switch fluorescence ratio
CATTTTATAG	0.983
CGCTTAAAGA	1.01
CAAATCTGTT	1.03
TTAAACATGT	1.02
TCCCCCAGCC	3.13
GATGTTACTT	1.01
AGGTGCGTCG	1.03
CTCTGGTAGA	1.02
CGTTATTACA	1.02
TCAATTCATC	0.973
GACTTAAAAG	1.01
ACTGTCCGAT	1.03
GTTTAAAGGC	1.02
GCAGAACCGT	1.05
AATCATGCTT	0.979
ACGTCGATGT	0.951
AGCTGGGATC	0.998
CATGTATTGC	0.973
TCTAAGACTT	0.972
GGAGCAAAAA	1.17
ACGCACATCT	1.37
CCAGGGTTCC	1.02
TCGTAGCC	0.976

Sequence	switch fluorescence ratio
ATCGGGGTCT	1.01
CATGATTG	0.986
TATTCACCCG	1.05
AAGTCTCTTG	0.997
TATAGCGTAT	1.04
TATAGTAACG	0.985
TAGGGTGGC	0.97
CGTCGTAGGC	1.07
CGCACATCGC	2.2
AAAGTGAACA	0.982
CAGGTGCAT	2.04
CAGTAGATGC	1.13
ATATGTCTAA	1.02
TTTGCTGCTA	1.01
GGTGATCCCT	1.05
GAAGGTCATA	1
TGGCTTGTG	0.988
CTCCTCTGTG	1.67
TTCGATTTCT	1.05
ACATGAATCG	0.986
GAGAGTTTAG	0.995
AATAAACCTC	1.05
TGTAAGGAGT	1.04

Sequence	switch fluorescence ratio
TTTGTGTGTG	0.988
TATGTAGTCA	1.04
TACAGATGTT	1
CGTCTGTACG	1.03
GCGGGGAACC	1.01
CACAGGCTAG	1.01
TGAGGTACA	1
TTTTGCGTTA	1.06
TGACACAGAT	1.07
TTTTCGTCTA	0.955
GGGTAAGCGA	0.992
GGCTCGTCGG	0.974
TTGTGAGATA	0.959
TCAGAACCAC	1.05
AATCAAGAAA	0.943
GTATGGCTGA	0.959
CCTTTAGTAG	1.03
AAATTGTTCG	0.986
TGGTGCTCGT	1.03
AAACAGGCTC	1.02
TCCTCTAAGA	1.13
GTCAGAAAGT	0.996
AACCTGGTTG	1.06

Sequence	switch fluorescence ratio
TTTTGTCTG	0.93
CAAGTCTCAG	1.02
CTCGTGAGGT	1
TCAGCCTGCG	0.953
ATCATAACCC	1.01
ACTTAATGA	1.01
AGTTTTACGA	1.04
ACCTCACTTA	1.25
TCCGTAGCGC	1.06
TCCATATCTT	1
GCCAGGATTT	1
AGTGGCTAAA	0.978
GGATCGAACA	0.976
CTGGGCTAAC	1.39
GTTGACCATG	0.995
ATGAAACCCA	1.04
TAACATTAAC	1.01
CGGGGCCTGT	0.983
GCTTCATGGA	1.03
AGTGAGGGGC	0.966
TATGCGATTA	1.01
AATACTTCCG	1.54
TGAGTCCGTG	1.08

Sequence	switch fluorescence ratio
CGGATGAATC	1.01
CGAATGTTTT	1
TTATAAGATG	0.998
TACAGGGCTA	0.988
CTACAACGGT	1.01
CGCACACTTC	2.47
TGAGAACTCG	0.997
ATCTCAGCTC	1.09
TTAAACGAAA	1.04
TTAATGACCC	1.08
AGGTGCTCCG	1.05
GCTCCGTTTT	1.25
AGGTGCTGGA	1.04
CAATCTAAAG	1.01
CAGGTTCGCC	1.03
AGGAGTACCC	1
TCTTTGACGA	0.982
TATGTGTATT	0.943
TGGGATGTCT	1.04
AAAAGCAAAA	1.57
GTCGGGTACG	1
AACGCCAAAG	1.04
CACAGCGTAT	1.06

Sequence	switch fluorescence ratio
ACTCAGTCAT	1.18
TTATGTACCT	1.2
GGGGGGTAC	1.37
GTCTTTCGTT	1.03
CTAAGTTGCG	1.01
TATGCCCATT	1.01
CAAGTTAAGA	0.965
CAGGCCTGTA	1
TCACGGGGTA	0.966
GAGAATACGT	1.01
ACGTGTACGA	1.03
ACCTACGTCG	1.4
ATATCAAATC	1
AGCGTACAGT	1.13
AAGTCCGCGG	0.996
TAGCGAACG	1.05
GGTGTTCCGA	0.963
CCGCGATTAG	3.71
GCTTTAGATC	1.01
GAGATAGTT	1.02
GTGAAAATAT	0.969
CACCGGGGAC	1.17
GAACGACTAT	1.05

Sequence	switch fluorescence ratio
TCATACCCGA	1.02
TCCCTGGAGA	1.05
AATGGAGTCC	0.986
CCTGGGGACG	0.971
GAGTGTTTTT	1.01
ATTCTCGGAC	1.04
GCATAGCTTA	1
CAGTCTTCGG	0.971
AAGTAGTATC	0.996
GGTCACCCCG	1.02
GCGGGACGAG	0.991
GATTATTACA	1.06
TTGTGTAAGT	1.01
TGGGCCTTCT	1.02
AAACTGTGCT	0.996
TAGGTATTTG	0.978
CCTGTGTCAT	1.1
TATGCGCGTT	0.964
GCAGGATGTG	0.965

Reference: the supplement of paper PMC10126150
